According to patent publication US11866720B2, “Transgenic or non-transgenic plants with mutated protoporphyrinogen oxidase having increased tolerance to herbicides” (priority 2013, dated 2024):
“And” between values parts separate entries of the source, which are not always exact repeats. Equal entries are not always repeated.

System: transgenic Arabidopsis thaliana plants expressing wildtype or mutated PPO
Test: Greenhouse tolerance test of transgenic T1 Arabidopsis plants (phytotox / injury rating 0-100)
Assay type: in vivo

| Structure (SMILES) | phytotox value, scale 0-100 (AMATU_PPO2 F420V, repetitions 1, 2, 75 g ai/ha, listed as BAS 850H) | phytotox value, scale 0-100 (AMATU_PPO2 F420V, repetitions 1, 2, 150 g ai/ha, listed as BAS 850H) | phytotox value, scale 0-100 (AMATU_PPO2 F420V, repetitions 1, 2, 300 g ai/ha, listed as BAS 850H) | phytotox value, scale 0-100 (AMATU_PPO2 L397D, repetitions 1, 2, 150 g ai/ha, listed as BAS 850H) | phytotox value, scale 0-100 (AMATU_PPO2 R128A_F420V, repetitions 1, 2, 300 g ai/ha, listed as BAS 850H) | phytotox value, scale 0-100 (ARBTH WT, 75 g ai/ha) | phytotox value, scale 0-100 (ARBTH WT, 150 g ai/ha) | phytotox value, scale 0-100 (ARBTH WT, 300 g ai/ha) | phytotox value, scale 0-100 (AMATU_PPO2 L397D_F420V, repetitions 1, 2, 200 g ai/ha) | phytotox value, scale 0-100 (AMATU_PPO2 R128A_F420V, repetitions 1, 2, 100 g ai/ha) | phytotox value, scale 0-100 (ARBTH WT, 50 g ai/ha) | phytotox value, scale 0-100 (ARBTH WT, 100 g ai/ha) | phytotox value, scale 0-100 (ARBTH WT, 200 g ai/ha) | phytotox value, scale 0-100 (AMATU_PPO2 F420V, repetitions 1, 2, 50 g ai/ha, listed as Kixor) | phytotox value, scale 0-100 (AMATU_PPO2 F420V, repetitions 1, 2, 100 g ai/ha, listed as Kixor) | phytotox value, scale 0-100 (AMATU_PPO2 L397D, repetitions 1, 2, 50 g ai/ha, listed as Kixor) | phytotox value, scale 0-100 (AMATU_PPO2 L397D, repetitions 1, 2, 100 g ai/ha, listed as Kixor) | phytotox value, scale 0-100 (AMATU_PPO2 L397D, repetitions 1, 2, 200 g ai/ha, listed as Kixor) |
| --- | --- | --- | --- | --- | --- | --- | --- | --- | --- | --- | --- | --- | --- | --- | --- | --- | --- | --- |
| C#CCN1C(=O)C(F)(F)Oc2cc(F)c(-n3c(=O)n(C)c(=S)n(C)c3=O)cc21 | 30 and 40 | 60 and 40 and 65 | 70 and 50 and 40 | 75 and 70 | 30 and 20 | 100 | 100 | 100 | – | – | – | – | – | – | – | – | – | – |
| Cc1nn(-c2cc(CC(Cl)C(=O)O)c(Cl)cc2F)c(=O)n1C(F)F (stereo not drawn) [Carfentrazone] | – | – | – | – | – | – | – | – | 20 and 10 | 10 | 100 | 100 | 100 | – | – | – | – | – |
| CC(C)N(C)S(=O)(=O)NC(=O)c1cc(-n2c(=O)cc(C(F)(F)F)n(C)c2=O)c(F)cc1Cl [Saflufenacil, saflufenacil] | – | – | – | – | – | – | – | – | – | – | 100 | 100 | 100 | 50 and 30 | 65 and 70 | 65 and 50 and 70 | 85 and 80 | 95 and 85 and 90 |
